In PubChem BioAssay AID485281 (National Center for Advancing Translational Sciences (NCATS), 2010):
Several values for one entry are separate records, joined by “and”; a condition that tells them apart may be missing. Identical values can stand only once. The campaign covered roughly 350,000 compounds. About 260 (0.074%) were called active. The inconclusive results got no clear call from the source; some entries with a clear call stand among them for comparison. The call rests on the fitted dose curve; in most records, active means well fitted inhibition curve with a large enough effect; inconclusive means small, poorly fitted or top-dose-only effect; inactive means no such curve, though single readings can be large or run the other way. Where the call is inconclusive, the potency comes from a doubtful curve fit.

Target: Ferritin light chain (Equus caballus) (UniProt P02791)
Assay: qHTS Assay for Identification of Novel General Anesthetics; further: nearly all actives have a fitted effect of over 20% in size
Conditions: apoferritin/1-aminoanthracene competitive binding, fluorescence; activity change, negative = displacement: at 77.5 µM (top of the series)
Procedure, shortened: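 Horse-spleen apoferritin (10 uM) was mixed with 50% saturated 1-aminoanthracene in PBS, exposed to compounds for 10 min at room temperature, and read for fluorescence (ex 380 nm, em 535 nm). Competitive displacement was fitted with a four-parameter Hill equation.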
On the % scale 0 is the no-effect control and ±100 the full control effect; potency means the concentration at half of the fitted maximal effect; tags describe the fitted curve by direction and shape.

Chain of UniProt P02791 (P02791 whole entry, looked up): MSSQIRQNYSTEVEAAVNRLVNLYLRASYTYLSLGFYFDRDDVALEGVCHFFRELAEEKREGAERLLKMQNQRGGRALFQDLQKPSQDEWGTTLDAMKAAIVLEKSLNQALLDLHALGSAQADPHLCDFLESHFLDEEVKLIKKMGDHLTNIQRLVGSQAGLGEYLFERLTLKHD

Activity change, negative = displacement, inactive:
CC1CCN(C2=NC(=O)/C(=C/c3ccccc3F)S2)CC1 -14.8%, COc1ccc(C(=O)/C=C/Nc2ccc([N+](=O)[O-])cc2C)cc1OC 0.776%, Cc1cccc(NC(=S)N(CCCN2CCOCC2)C(C)c2cc3ccccc3o2)c1 (stereo unspecified) -2.18%, Cc1ccc(-c2cc3ncc(C#N)c(N)n3n2)cc1 3.04%, O=c1c2c(nc3c(-c4ccc(Cl)cc4)c[nH]n13)CCCC2 -1.07%, CCOC(=O)C1CCN(C(=O)c2cc3c(-c4ccc(OC)c(OC)c4)nn(C)c3s2)CC1 -11%, CC(C)[C@H](NC(=O)N1CCn2c1nc1ccccc12)C(=O)N[C@@H](C(=O)O)c1ccccc1 -2.53%, COc1ccc(-c2nc3c(c(=O)[nH]c(=O)n3Cc3ccccc3)n2C)cc1 -10.5%, COc1ccc(-c2csc(NC(=O)Cc3ccccc3)n2)cc1OC 22.1%, CCOC(=O)N/N=C(\C)c1cccs1 -15.9%, O=C(NC1CC1)C1=C[C@@H](c2c[nH]c3ccccc23)C[C@@H](OCc2ccc(CO)cc2)O1 -0.496%, O=C(O)c1cccc(NC(=S)NC(=O)C(c2ccccc2)c2ccccc2)c1 -10.9%, COC(=O)CNC(c1ccccc1)c1cc(Br)ccc1NC(=O)CCN1CCOCC1 (stereo unspecified) -7.98%, CCN(CC)c1cc2c(cc1F)c(=O)c(S(=O)(=O)c1ccccc1)cn2Cc1ccccc1 -11.1%, CCCN=C1N/C(=C\c2ccco2)C(=O)N1c1ccccc1 0.377%, Cc1cc(C(=O)NCc2cccnc2)no1 -9.11%

Potency, inconclusive:
O=C(NCCc1ccccc1)c1c[nH]c2ccc(S(=O)(=O)Nc3ccccc3F)cc2c1=O 14.1 µM [inhibitor, partial curve], CC1CCC2C(=O)N(c3ccc(NC4CCN(Cc5ccccc5)CC4)c([N+](=O)[O-])c3)C(=O)C2C1 (stereo unspecified) 7.08 µM [inhibitor, partial curve], Oc1cccc(C(=S)N2CCCCC2)c1 15.8 µM [inhibitor, partial curve], CCCCCc1ccc(S(=O)(=O)NCCc2ccncc2)cc1 35.5 µM [inhibitor, partial curve], Cc1ccc2nc(N(CCCN(C)C)C(=O)c3ccc(Br)s3)sc2c1 20 µM [inhibitor, partial curve], Cc1cccc(/C=N/NC(=O)c2ccccc2OCc2cccc(Br)c2)n1 56.2 µM [inhibitor, single point], Cn1c(-c2ccccc2)c(C(=O)CC#N)c2ccccc21 35.5 µM [inhibitor, single point], CCCCCOC(=O)c1ccc(N2C(=O)C3C4C=CC(C4)C3C2=O)cc1 (stereo unspecified) 25.1 µM [inhibitor, partial curve], O=C1CCCc2c1[nH]c1ccc(Br)cc21 31.6 µM [inhibitor, partial curve], CC(C)c1ccc(NC(=O)c2cccn2-c2nnc(N3CCCCC3)s2)cc1 11.2 µM [inhibitor, single point], O=C1Nc2ccc(F)cc2C12Nc1ccccc1-c1nnc(SCc3ccccc3F)nc1O2 (stereo unspecified) 17.8 µM [inhibitor, partial curve], COc1ccc(/C=C/C(=O)OCC(=O)NC(=O)NC(C)(C)C)cc1 25.1 µM [inhibitor, partial curve], COC(=O)CC1(c2ccccc2)C(=O)c2ccccc2C1=O 35.5 µM [inhibitor, partial curve], Cc1ccc(Sc2nnc(Cc3ccccc3)c3ccccc23)cc1 12.6 µM [inhibitor, single point], COc1ccc(N(Cc2ccccc2)C(=O)c2nc(SC)ncc2Cl)cc1 31.6 µM [inhibitor, partial curve], CC(C)Cn1c(-c2csc(C(C)C)c2)n[nH]c1=S 35.5 µM [inhibitor, partial curve], CC(C)Cc1ccc(/C(=N/O)C(=O)O)s1 35.5 µM [inhibitor, partial curve], Cc1cc(C)c2[nH]c(=O)c(C(c3nnnn3CC3CCCO3)N3CCC(C)CC3)cc2c1 (stereo unspecified) 35.5 µM [inhibitor, partial curve], COc1ccccc1-c1nn(CCC(=O)Nc2cccc(C(C)=O)c2)c2nc(C)cc(C)c12 25.1 µM [inhibitor, partial curve], Cc1ccc(-c2ccc(=O)n(C(C)C(=O)Nc3ccccc3Cl)n2)cc1C (stereo unspecified) 14.1 µM [inhibitor, partial curve], CCc1ccc(C(=O)COC(=O)CNC(=O)c2ccc(Br)o2)cc1 28.2 µM [inhibitor, partial curve], CC(NC(=O)Nc1ccc(Br)cc1)C(C)(C)C (stereo unspecified) 39.8 µM [inhibitor, single point], CN(Cc1cnn(C)c1)C(=O)c1sc2cccc(Cl)c2c1Cl 39.8 µM [inhibitor, partial curve], Cc1cc([N+](=O)[O-])ccc1NCc1ccc2c(c1)OCCO2 15.8 µM [inhibitor, partial curve], CC1CCc2nc3ncn(CC(=O)Nc4cccc(C#N)c4)c(=O)c3cc2C1 (stereo unspecified) 20 µM [inhibitor, partial curve], COC(=O)C1CCCN1S(=O)(=O)c1ccc2ccccc2c1 (stereo unspecified) 6.31 µM [inhibitor, partial curve], O=C(CN1CCCCCC1)Nc1ccccc1Cl 25.1 µM [inhibitor, partial curve], Cc1[nH][nH]c(=O)c1N=Nc1ccccc1C#N 25.1 µM [inhibitor, single point], CC(C)c1nnc(-c2ccc(Cl)cc2)c(N(C)C)n1 28.2 µM [inhibitor, partial curve], CCOC(=O)c1oc2ccccc2c1NC(=O)Cc1cccs1 39.8 µM [inhibitor, partial curve], Cc1ccc(CNC(=O)CCC(=O)N2CC(C)Sc3ccccc32)cc1 (stereo unspecified) 35.5 µM [inhibitor, partial curve] and 44.7 µM [inhibitor, single point], CC(=O)N1CCN(S(=O)(=O)c2cccc(C(=O)Nc3nc4ccccc4[nH]3)c2)CC1 28.2 µM [inhibitor, partial curve], CC(=O)c1ccc(S(=O)(=O)N2CCN(c3ccccc3F)CC2)cc1 28.2 µM [inhibitor, partial curve], FC(F)(F)c1cc(C(F)(F)F)c2ccc(Oc3ccccc3)nc2n1 12.6 µM [inhibitor, partial curve], CC(C)CC(=O)NC(=S)N1CCN(c2ccc([N+](=O)[O-])cc2Cl)CC1 31.6 µM [inhibitor, partial curve], Cc1ccc(Nc2nc(COC(=O)C3CC3)cs2)cc1 31.6 µM [inhibitor, partial curve], CC1CCN(CC2C(=O)O[C@@H]3C[C@@]4(C)CCC[C@H](C)C4=C[C@H]23)CC(C)(C)C1 (stereo partly specified) 17.8 µM [inhibitor, single point], O=[N+]([O-])c1cccc(CSc2nnc(Cc3ccccc3)n2-c2ccc(F)cc2)c1 50.1 µM [inhibitor, single point], CC(C)N(C(=O)Cn1cc(S(=O)(=O)Cc2ccc(C(F)(F)F)cc2)c2ccccc21)C(C)C 3.16 µM [inhibitor, full curve], COc1ccc(NC(=O)Nc2nnc(C(C)(C)C)s2)cc1 31.6 µM [inhibitor, partial curve], O=C(OCc1cncs1)c1ccccc1Cl 28.2 µM [inhibitor, partial curve], O=C(CC1C(=O)NCCN1C(=O)Nc1ccccc1)Nc1ccc2c(c1)OCCO2 (stereo unspecified) 25.1 µM [inhibitor, partial curve], CC1Cc2ccccc2N1C(=O)CN1C(=O)C(=O)N(Cc2ccccc2)C1=O (stereo unspecified) 14.1 µM [inhibitor, partial curve], Cc1c(CCOC(=O)c2cc([N+](=O)[O-])cc([N+](=O)[O-])c2)sc[n+]1CC(=O)c1ccccc1 8.91 µM [inhibitor, partial curve], CC(C)(C)c1ccc(Oc2cccc(C3CC(=O)C(C4NCCc5ccccc54)C(=O)C3n3cncn3)c2)cc1 (stereo unspecified) 31.6 µM [inhibitor, partial curve], Oc1oc(-c2ccccc2)nc1C=NCc1ccccc1 22.4 µM [inhibitor, partial curve], COc1ccc(OCc2nnc(-c3ccccc3)o2)cc1 39.8 µM [inhibitor, partial curve], Cc1ccc(SCC(=O)c2cc(C)c(OC(=S)N(C)C)c(C)c2)cc1 50.1 µM [inhibitor, partial curve], Cc1cccc(Oc2c([N+](=O)[O-])c(=O)n(C)c3ccccc23)c1 31.6 µM [inhibitor, partial curve], O=C(/C=C/c1cccc([N+](=O)[O-])c1)NCCSCc1cccc(Cl)c1 25.1 µM [inhibitor, partial curve]
